{"source": "paper PMC4336329", "about": "(PLoS ONE, 2015)", "note": "Out of some 310,000 compounds screened, about 14,000 (4.5%) showed an effect of 50% or more. Effects have a minus sign here. The list shows a part of the results.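 Further: peak tail current of the secondary pulse compared with the same well before compound.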", "data": [{"molecular_target": "human ether-à-go-go-related gene (hERG) potassium channel (human, UniProt Q12809)", "sequence (Q12809 whole entry, looked up)": "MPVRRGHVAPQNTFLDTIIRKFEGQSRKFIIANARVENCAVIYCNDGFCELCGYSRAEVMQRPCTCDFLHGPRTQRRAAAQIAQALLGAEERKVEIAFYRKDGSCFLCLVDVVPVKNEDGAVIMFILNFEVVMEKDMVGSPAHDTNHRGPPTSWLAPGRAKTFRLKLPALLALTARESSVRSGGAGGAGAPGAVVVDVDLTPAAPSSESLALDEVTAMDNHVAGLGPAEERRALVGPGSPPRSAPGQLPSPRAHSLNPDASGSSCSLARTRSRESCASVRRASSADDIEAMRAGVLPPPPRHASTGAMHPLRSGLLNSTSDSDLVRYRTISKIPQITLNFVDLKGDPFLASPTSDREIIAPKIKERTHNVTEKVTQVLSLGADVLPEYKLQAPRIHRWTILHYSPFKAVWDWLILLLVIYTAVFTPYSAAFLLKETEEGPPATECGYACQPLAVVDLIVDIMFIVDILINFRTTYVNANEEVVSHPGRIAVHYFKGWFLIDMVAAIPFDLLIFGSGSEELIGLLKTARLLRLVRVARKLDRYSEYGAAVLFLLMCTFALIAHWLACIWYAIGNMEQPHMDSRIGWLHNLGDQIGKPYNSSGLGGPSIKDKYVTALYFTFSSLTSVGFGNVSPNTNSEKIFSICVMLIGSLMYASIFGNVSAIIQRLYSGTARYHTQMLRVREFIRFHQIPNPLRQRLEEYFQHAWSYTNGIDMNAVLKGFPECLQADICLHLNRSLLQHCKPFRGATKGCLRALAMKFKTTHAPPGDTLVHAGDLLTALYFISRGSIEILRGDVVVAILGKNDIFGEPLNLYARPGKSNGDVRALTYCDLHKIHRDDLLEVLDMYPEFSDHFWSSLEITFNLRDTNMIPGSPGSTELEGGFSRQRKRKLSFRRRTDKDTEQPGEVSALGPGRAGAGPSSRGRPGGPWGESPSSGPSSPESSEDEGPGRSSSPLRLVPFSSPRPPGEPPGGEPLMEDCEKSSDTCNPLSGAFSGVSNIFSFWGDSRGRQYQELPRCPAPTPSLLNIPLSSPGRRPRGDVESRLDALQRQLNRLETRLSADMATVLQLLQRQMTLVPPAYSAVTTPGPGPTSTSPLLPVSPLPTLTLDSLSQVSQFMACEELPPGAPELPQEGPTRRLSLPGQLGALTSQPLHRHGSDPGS", "test": "primary screen, population patch clamp on CHO cells stably expressing hERG", "units": {"hERG current change (%, negative = inhibition) at 10uM": "%"}, "values": [{"smiles": "CN1C(=O)/C(=C\\C=C2/CCCN2C)N(C)C1=S", "hERG current change (%, negative = inhibition) at 10uM": -1.13}, {"smiles": "O=C(COc1cccc(C(F)(F)F)c1)Nc1ccc(S(=O)(=O)N2CCCCC2)cc1", "hERG current change (%, negative = inhibition) at 10uM": -20.6}, {"smiles": "Cn1c(=O)c2ccccc2n(CC(=O)N2CCCc3ccccc32)c1=O", "hERG current change (%, negative = inhibition) at 10uM": 3.17}, {"smiles": "CN(C)S(=O)(=O)c1cccc(C(=O)N2CCc3ccccc32)c1", "hERG current change (%, negative = inhibition) at 10uM": -8.42}, {"smiles": "COc1ccc(Nc2ccc([N+](=O)[O-])cn2)cc1", "hERG current change (%, negative = inhibition) at 10uM": 8.41}, {"smiles": "CC(=O)N1CCN(C(=O)c2ccc3c(c2)S(=O)(=O)c2ccccc2C3=O)CC1", "hERG current change (%, negative = inhibition) at 10uM": 16.1}, {"smiles": "O=C(C1CCCN(S(=O)(=O)c2ccc(Cl)cc2)C1)N1CCCC1", "note": "(stereo not shown)", "hERG current change (%, negative = inhibition) at 10uM": -19}, {"smiles": "CCC(C)(C)n1nnnc1C(c1ccc(OC)c(OC)c1)N1CCN(c2ccc(F)cc2)CC1.Cl", "note": "(stereo not shown)", "hERG current change (%, negative = inhibition) at 10uM": -72.9}, {"smiles": "Nc1c(CO)nnn1-c1ccccc1", "hERG current change (%, negative = inhibition) at 10uM": 4.7}, {"smiles": "O=S(=O)(NC1CC1)c1ccccc1", "hERG current change (%, negative = inhibition) at 10uM": 19.6}, {"smiles": "O=C1C(=O)N2C(=C1C(=O)N1CCCCCC1)c1ccccc1CC21CCCC1", "hERG current change (%, negative = inhibition) at 10uM": 24.4}, {"smiles": "CCCOC(=O)c1cc2ccccc2oc1=O", "hERG current change (%, negative = inhibition) at 10uM": -5.37}, {"smiles": "O=C(O)c1ccc(COCC(F)(F)F)cc1", "hERG current change (%, negative = inhibition) at 10uM": 1.12}, {"smiles": "CC(C)c1ccc(N(CC(=O)Nc2ccc(S(=O)(=O)N3CCOCC3)cc2)S(C)(=O)=O)cc1", "hERG current change (%, negative = inhibition) at 10uM": 5.99}, {"smiles": "COc1ccc(CNc2nc3c(c(=O)n(Cc4ccc(F)cc4)c(=O)n3C)n2C)cc1", "hERG current change (%, negative = inhibition) at 10uM": -17.5}, {"smiles": "COc1ccc(CCNC(=O)C2CC(=O)N(C3CCCCCCC3)C2)cc1OC", "note": "(stereo not shown)", "hERG current change (%, negative = inhibition) at 10uM": -9.32}, {"smiles": "Cc1ccc(Cn2c(CCNc3nc(-c4ccc(Cl)c([N+](=O)[O-])c4)cs3)nc3cc(C(=O)NCCCO)ccc32)cc1", "hERG current change (%, negative = inhibition) at 10uM": 12.6}, {"smiles": "CN1C(=O)c2ccc(N3CCCC3)cc2C1=O", "hERG current change (%, negative = inhibition) at 10uM": 9.87}, {"smiles": "CCC[N+]1(CC#CC(O)(c2ccccc2)C2CCCCC2)CCCCC1.[Br-]", "note": "(stereo not shown)", "hERG current change (%, negative = inhibition) at 10uM": 12.1}, {"smiles": "Cc1ccc(Cc2cnc(NC(=O)/C(C#N)=C/c3ccc(-c4ccccc4[N+](=O)[O-])o3)s2)cc1", "hERG current change (%, negative = inhibition) at 10uM": 17.6}, {"smiles": "COc1ccc(NC(=O)Nc2cccc(F)c2)c(OC)c1", "hERG current change (%, negative = inhibition) at 10uM": 22.5}, {"smiles": "COc1ccc(Cl)cc1NC(=O)CN(C)C(=O)c1ccc2c(c1)OCCO2", "hERG current change (%, negative = inhibition) at 10uM": 15.7}, {"smiles": "Cc1ccnc(NC(=O)c2cccc(NC(=O)Cc3ccccc3)c2)c1", "hERG current change (%, negative = inhibition) at 10uM": -15.8}, {"smiles": "CCOc1ccccc1C1C(C#N)=C(N)N(N(C)C)C2=C1C(=O)CCC2", "note": "(stereo not shown)", "hERG current change (%, negative = inhibition) at 10uM": -9.28}, {"smiles": "Cc1ccc(S(=O)(=O)NCC[C@@]2(C)C3CCC2(C)C(=O)C3)cc1", "note": "(stereo partly shown)", "hERG current change (%, negative = inhibition) at 10uM": 0.675}, {"smiles": "COc1ccc(OCc2nnc(SCC(=O)c3ccccc3)o2)cc1", "hERG current change (%, negative = inhibition) at 10uM": -0.982}, {"smiles": "COc1ccc(-c2cn(Cc3ccc4ccccc4c3)nn2)cc1", "hERG current change (%, negative = inhibition) at 10uM": 19.3}, {"smiles": "COc1cc2c(cc1OC)-c1c(OC)c(OC)c(OC)c3ccnc(c13)C2=O", "hERG current change (%, negative = inhibition) at 10uM": -53.8}, {"smiles": "COc1cccc(NC(=O)CN(C)C(=O)C2CCN(C(=O)c3ccccc3C)CC2)c1", "hERG current change (%, negative = inhibition) at 10uM": 1.58}, {"smiles": "CCOc1cc(-c2sc(Nc3cc(C)ccc3OC)n[n+]2-c2ccccc2)ccc1OC.[Cl-]", "hERG current change (%, negative = inhibition) at 10uM": -68.7}, {"smiles": "Cc1sc(NC(=O)/C=C/C(=O)O)c(C(N)=O)c1-c1ccc(C(C)(C)C)cc1", "hERG current change (%, negative = inhibition) at 10uM": -23.7}, {"smiles": "Cc1cccc(Oc2coc3cc(OC(=O)c4cncc(Br)c4)ccc3c2=O)c1", "hERG current change (%, negative = inhibition) at 10uM": -5.03}, {"smiles": "Cc1cc(C(=O)NNC(=S)NCC2CCCO2)cs1", "note": "(stereo not shown)", "hERG current change (%, negative = inhibition) at 10uM": -8.52}, {"smiles": "O=C(CCCNC(=O)c1ccc(Cl)cc1)Nc1ccc(F)c(S(=O)(=O)N2CCOCC2)c1", "hERG current change (%, negative = inhibition) at 10uM": -33.6}, {"smiles": "CS(=O)(=O)N(CC(=O)NC1CCCC1)c1ccc2c(c1)OCCO2", "hERG current change (%, negative = inhibition) at 10uM": 0.395}, {"smiles": "COc1ccc(Cn2ccnc2SCC(=O)Nc2ccccc2)cc1", "hERG current change (%, negative = inhibition) at 10uM": -13.4}, {"smiles": "COc1cc(/C=C(/C(=O)O)c2ccc(-c3ccccc3)cc2)cc(OC)c1OC", "hERG current change (%, negative = inhibition) at 10uM": 4.69}, {"smiles": "CCOC(=O)N1CCC(N2CCCC(CO)(Cc3cccc(OC)c3)C2)CC1", "note": "(stereo not shown)", "hERG current change (%, negative = inhibition) at 10uM": -51.7}, {"smiles": "Cc1ccc(S(=O)(=O)NC2CC2)cc1[N+](=O)[O-]", "hERG current change (%, negative = inhibition) at 10uM": 5.91}, {"smiles": "O=C(CCc1nc(-c2ccc(Cl)cc2)no1)NC1CCCC1", "hERG current change (%, negative = inhibition) at 10uM": 7.7}, {"smiles": "Cn1cc(CN2CC3C[C@@H]4CC2C[C@H](C3)C4)c(-c2ccc3c(c2)OCCO3)n1", "hERG current change (%, negative = inhibition) at 10uM": -8.66}, {"smiles": "Cc1ccccc1NC(=O)c1cn(-c2ccccc2)nc1-c1ccccc1", "hERG current change (%, negative = inhibition) at 10uM": 0.928}, {"smiles": "O=C1C2CC=CCC2C(=O)N1c1cccc(OS(=O)(=O)c2ccc3ccccc3c2)c1", "note": "(stereo not shown)", "hERG current change (%, negative = inhibition) at 10uM": 0.32}, {"smiles": "COC(=O)c1cc(NCc2cccs2)ccc1N1CCOCC1", "hERG current change (%, negative = inhibition) at 10uM": -1.69}, {"smiles": "O=C(Nc1ccc(S(=O)(=O)N2CCc3ccccc3C2)cc1)c1ccccc1", "hERG current change (%, negative = inhibition) at 10uM": 9.73}, {"smiles": "Cc1ccc(S(=O)(=O)N(C)C)cc1NC(=O)CSc1ncc(C(F)(F)F)cc1Cl", "hERG current change (%, negative = inhibition) at 10uM": -33.6}, {"smiles": "COc1ccc(-c2cc(-c3ccccc3)nc(NN)n2)cc1OC", "hERG current change (%, negative = inhibition) at 10uM": -2.76}, {"smiles": "CC1(C)CC(NC(=O)Nc2ccc([N+](=O)[O-])cc2)CC(C)(C)N1", "hERG current change (%, negative = inhibition) at 10uM": 9.76}, {"smiles": "COc1ccc(CNC(=O)CN(C(=O)c2csnn2)c2ccc(C(C)=O)cc2)cc1", "hERG current change (%, negative = inhibition) at 10uM": -23.4}, {"smiles": "Cc1ccc(-c2noc(CSc3nnnn3C3CCCCC3)n2)cc1", "hERG current change (%, negative = inhibition) at 10uM": -1.67}, {"smiles": "CC1CN(C(=O)CSc2nc(-c3ccccc3)cs2)CC(C)O1", "note": "(stereo not shown)", "hERG current change (%, negative = inhibition) at 10uM": 3.57}, {"smiles": "C=CC[n+]1c(/C=C/c2ccc(OC(C)=O)c(OC)c2)ccc2ccccc21.[Cl-]", "hERG current change (%, negative = inhibition) at 10uM": -25.9}, {"smiles": "O=C(Nc1ccc(S(=O)(=O)N2CCCCC2)cc1)c1ccccc1F", "hERG current change (%, negative = inhibition) at 10uM": 10}, {"smiles": "CCc1nccn1S(=O)(=O)c1ccc(OC)c(C)c1C", "hERG current change (%, negative = inhibition) at 10uM": 8.72}, {"smiles": "Cc1cc(O)c(C(=O)/C=C/c2ccccc2)c(=O)o1", "hERG current change (%, negative = inhibition) at 10uM": 8.4}]}]}
